# Laboratory results: a collection of fitness landscapes (doi:10.1016/j.celrep.2020.107928)
# The full ranking holds about 81,000 sequences; the median of “one-hybrid fitness for binding parS DNA” is about -0.17, and the highest 2% start at about 0.51. The list shows a part of the results.
# B1: Caulobacter ParB omega fusion; a variant is named by its letters at X, in order, B8GW30 (parent)
# chain: MESVVVGEPGMSEGRRGLGRGLSALLGEVDAAPAQAPGEQLGGSREAPIEILQRNPDQPRRTFREEDLEDLSNSIREKGVLQPILVRPSPDTAGEYQIVAGERAWRAAQRAGLKTVPIMVRELDDLAVLEIGIIENVQRADLNVLEEALSYKVLMEKFERTQENIAQTIGKSXSHVANXMRLLXLPDEVQSYLVSGELTAXHARAIAAAADPVALAKQIIEGGLSVRETEALARKAPNLSAGKSKGGRPPRVKDTDTQALESDLSSVLGLDVSIDHRGSTGTLTITYATLEQLDDLCNRLTRGI
# Variants of: B1
# Assay: one-hybrid fitness for binding parS DNA (scaled: cognate 1, non-cognate 0); higher = stronger binding
# Settings: with parS DNA site
# How it was run: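 Selection: bacterial one-hybrid in E. coli USO, HIS3 reporter with the site 19 bp from the promoter, 48 hours at 37°C on M9-minus-histidine plus 0.1 mM IPTG and 5 mM 3-AT. Libraries were Caulobacter ParB with four randomised specificity codons, sequenced on Illumina before and after selection. Fitness is the rescaled log change in variant-to-wild-type read ratio, anchored to the cognate and non-cognate sites.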
row,Variant,one-hybrid fitness for binding parS DNA
1,QHAW,≤ 0.2
2,KQRG,≤ 0.2
3,WWAM,≤ 0.2
4,QMRQ,≤ 0.2
5,QAIT,≤ 0.2
6,AWYW,≤ 0.2
7,FRVG,≤ 0.2
8,VNDV,≤ 0.2
9,AVSV,≤ 0.2
10,KSSR,≤ 0.2
11,KNQK,≤ 0.2
12,KKYC,≤ 0.2
13,CRTA,≤ 0.2
14,RLTI,≤ 0.2
15,TSIL,≤ 0.2
16,VHVV,0.244
17,KERD,≤ 0.2
18,TYNG,≤ 0.2
19,HCLG,≤ 0.2
20,HCWS,≤ 0.2
21,PYPG,≤ 0.2
22,MTFG,≤ 0.2
23,AVWS,≤ 0.2
24,WRQV,≤ 0.2

row,Variant,one-hybrid fitness for binding parS DNA
1,HWTG,≤ 0.2
2,PIYE,≤ 0.2
3,KAST,≤ 0.2
4,CDTS,≤ 0.2
5,AKVN,≤ 0.2
6,CMLE,≤ 0.2
7,VPWR,≤ 0.2
8,NQSV,≤ 0.2
9,HTGS,≤ 0.2
10,DTSE,≤ 0.2
11,LELN,≤ 0.2
12,HYIR,≤ 0.2
13,AHEK,≤ 0.2
14,NDKD,≤ 0.2
15,HSLL,≤ 0.2
16,VPRN,≤ 0.2
17,ECSN,≤ 0.2
18,TAWC,≤ 0.2
19,CQKA,≤ 0.2
20,IACF,≤ 0.2
21,QMTP,≤ 0.2
22,GMFL,≤ 0.2
23,GFDC,≤ 0.2
24,QREM,≤ 0.2

row,Variant,one-hybrid fitness for binding parS DNA
1,SSTV,≤ 0.2
2,APMC,≤ 0.2
3,CLGY,≤ 0.2
4,HTHW,≤ 0.2
5,DARN,≤ 0.2
6,EPYW,≤ 0.2
7,PNWV,≤ 0.2
8,RENS,0.415
9,LQMC,≤ 0.2
10,CRMS,≤ 0.2
11,PCTS,≤ 0.2
12,KRGI,≤ 0.2
13,RISH,0.259
14,GRPR,≤ 0.2
15,SEVA,0.262
16,PLSF,≤ 0.2
17,QSGL,≤ 0.2
18,WTQR,≤ 0.2
19,YRVC,≤ 0.2
20,QTKA,≤ 0.2
21,HCMW,≤ 0.2
22,KFPD,≤ 0.2
23,HGTA,≤ 0.2
24,DEPC,≤ 0.2

row,Variant,one-hybrid fitness for binding parS DNA
1,TPKI,≤ 0.2
2,LLCP,≤ 0.2
3,RAYP,≤ 0.2
4,PCRA,≤ 0.2
5,GIVR,≤ 0.2
6,AQVV,≤ 0.2
7,SGMS,≤ 0.2
8,PCRL,≤ 0.2
9,MSEH,≤ 0.2
10,TTRR,≤ 0.2
11,FYFS,≤ 0.2
12,PEDM,≤ 0.2
13,GCQA,≤ 0.2
14,ISVS,≤ 0.2
15,GKQR,≤ 0.2
16,TFLQ,≤ 0.2
17,ATVI,≤ 0.2
18,EPVV,≤ 0.2
19,RCTA,0.609
20,AGRN,≤ 0.2
21,QTVL,≤ 0.2
22,KRWT,≤ 0.2
23,YNAE,≤ 0.2
24,FFRS,≤ 0.2

row,Variant,one-hybrid fitness for binding parS DNA
1,VYMY,≤ 0.2
2,PAAC,≤ 0.2
3,RVWN,0.478
4,RTCT,0.917
5,VVCG,≤ 0.2
6,GVSK,≤ 0.2
7,SLYI,≤ 0.2
8,EPHC,≤ 0.2
9,AVSD,≤ 0.2
10,YVLG,≤ 0.2
11,RYRE,≤ 0.2
12,QTRP,≤ 0.2
13,QGHF,≤ 0.2
14,DTYY,≤ 0.2
15,RNWE,≤ 0.2
16,TSNW,≤ 0.2
17,QCDW,≤ 0.2
18,PRYQ,≤ 0.2
19,YIST,≤ 0.2
20,ADYG,≤ 0.2
21,YQRH,≤ 0.2
22,RVMT,0.885
23,LRDW,≤ 0.2
24,PVLD,≤ 0.2

row,Variant,one-hybrid fitness for binding parS DNA
1,PVRM,≤ 0.2
2,YLSR,≤ 0.2
3,MMTT,≤ 0.2
4,PLTR,≤ 0.2
5,WNND,≤ 0.2
6,SVVD,≤ 0.2
7,MQSR,≤ 0.2
8,SLTR,≤ 0.2
9,QPLQ,≤ 0.2
10,KTWQ,≤ 0.2
11,PQHV,≤ 0.2
12,HQYW,≤ 0.2
13,IPQC,≤ 0.2
14,AKRV,≤ 0.2
15,SLEV,≤ 0.2
16,SSKR,≤ 0.2
17,LVVS,≤ 0.2
18,PHES,≤ 0.2
19,VQTT,≤ 0.2
20,LPNC,≤ 0.2
21,ACRR,≤ 0.2
22,FAAL,≤ 0.2
23,PMTK,≤ 0.2
24,EATD,≤ 0.2

row,Variant,one-hybrid fitness for binding parS DNA
1,IEKP,≤ 0.2
2,SNDG,≤ 0.2
3,RGIV,≤ 0.2
4,PLWY,≤ 0.2
5,HNPA,≤ 0.2
6,LTNS,≤ 0.2
7,MIHF,≤ 0.2
8,RLTC,1
9,QSTS,≤ 0.2
10,DTQP,≤ 0.2
11,YDRH,≤ 0.2
12,NGPP,≤ 0.2
13,AWRA,≤ 0.2
14,EAGV,≤ 0.2
15,RDLR,≤ 0.2
16,RIRI,≤ 0.2
17,AYFF,≤ 0.2
18,PKSN,≤ 0.2
19,WYRS,≤ 0.2
20,TKCC,≤ 0.2
21,QPFW,≤ 0.2
22,PVTI,≤ 0.2
23,DERR,≤ 0.2
24,HYPE,≤ 0.2

row,Variant,one-hybrid fitness for binding parS DNA
1,GVYA,≤ 0.2
2,CMQL,≤ 0.2
3,RHDR,≤ 0.2
4,LLFP,≤ 0.2
5,NTSV,≤ 0.2
6,DSSI,≤ 0.2
7,PADF,≤ 0.2
8,GRKH,≤ 0.2
9,GAEI,≤ 0.2
10,REKE,≤ 0.2
11,MNMD,≤ 0.2
12,QILM,≤ 0.2
13,AEPC,≤ 0.2
14,QYHQ,≤ 0.2
15,AMGK,≤ 0.2
16,RQPH,≤ 0.2
17,KATD,≤ 0.2
18,YHVS,≤ 0.2
19,PANA,≤ 0.2
20,KISI,≤ 0.2
21,FRDS,≤ 0.2
22,RQIA,0.42
23,KVTC,≤ 0.2
24,IMFR,≤ 0.2

row,Variant,one-hybrid fitness for binding parS DNA
1,EPSD,≤ 0.2
2,IVLV,≤ 0.2
3,GHWC,≤ 0.2
4,QCFY,≤ 0.2
5,SFKC,≤ 0.2
6,CKSI,≤ 0.2
7,NHYC,≤ 0.2
8,GNPT,≤ 0.2
9,MTWS,≤ 0.2
10,AQQR,≤ 0.2
11,LEAG,≤ 0.2
12,RQHA,0.57
13,SRQL,≤ 0.2
14,DQSY,≤ 0.2
15,PAPY,≤ 0.2
16,MMSN,≤ 0.2
17,NVPT,≤ 0.2
18,SAAI,≤ 0.2
19,EAHV,≤ 0.2
20,HPAF,≤ 0.2
21,CMKS,≤ 0.2
22,IVSA,≤ 0.2
23,TPQV,≤ 0.2
24,KANR,≤ 0.2

row,Variant,one-hybrid fitness for binding parS DNA
1,AAWN,≤ 0.2
2,NNPT,≤ 0.2
3,SNTI,≤ 0.2
4,WKIY,≤ 0.2
5,WTAG,≤ 0.2
6,AVDH,≤ 0.2
7,QACV,≤ 0.2
8,TYFH,≤ 0.2
9,EPPW,≤ 0.2
10,AIEG,≤ 0.2
11,GSWC,≤ 0.2
12,AAAH,≤ 0.2
13,VPFG,≤ 0.2
14,RKPL,≤ 0.2
15,AKVG,≤ 0.2
16,FRRM,≤ 0.2
17,CAAR,≤ 0.2
18,SVPS,≤ 0.2
19,RRHN,0.689
20,YRHK,≤ 0.2
21,AFLN,≤ 0.2
22,RRYE,≤ 0.2
23,PPRG,≤ 0.2
24,NNFL,≤ 0.2

row,Variant,one-hybrid fitness for binding parS DNA
1,RWEA,0.301
2,CRNT,≤ 0.2
3,WGLS,≤ 0.2
4,NNLW,≤ 0.2
5,QPQG,≤ 0.2
6,QYMG,≤ 0.2
7,TGRK,≤ 0.2
8,RYLP,≤ 0.2
9,FEVR,≤ 0.2
10,GMYR,≤ 0.2
11,HWES,≤ 0.2
12,RFSM,0.326
13,QKQY,≤ 0.2
14,YNYT,≤ 0.2
15,NSER,≤ 0.2
16,TPII,≤ 0.2
17,WMAG,≤ 0.2
18,HKGV,≤ 0.2
19,RSKW,0.286
20,KHKV,≤ 0.2
21,TGKN,≤ 0.2
22,CGNR,≤ 0.2
23,RYNI,≤ 0.2
24,QSLD,≤ 0.2

row,Variant,one-hybrid fitness for binding parS DNA
1,TCWS,≤ 0.2
2,TMES,≤ 0.2
3,ALQL,≤ 0.2
4,RDQT,≤ 0.2
5,PNSP,≤ 0.2
6,EQAR,≤ 0.2
7,KESR,≤ 0.2
8,KSHC,≤ 0.2
9,KRSG,≤ 0.2
10,FWLF,≤ 0.2
11,RNYQ,≤ 0.2
12,AAFN,≤ 0.2
13,RRIA,0.828
14,IHYC,≤ 0.2
15,AWVS,≤ 0.2
16,YALT,≤ 0.2
17,PSWG,≤ 0.2
18,MLKG,≤ 0.2
19,EKQG,≤ 0.2
20,NLSL,≤ 0.2
21,GPKF,≤ 0.2
22,CTKV,≤ 0.2
23,LMDN,≤ 0.2
24,TAMK,≤ 0.2

row,Variant,one-hybrid fitness for binding parS DNA
1,REMF,≤ 0.2
2,KRVF,≤ 0.2
3,AKIQ,≤ 0.2
4,FFLV,≤ 0.2
5,IQWS,≤ 0.2
6,DDYT,≤ 0.2
7,APPY,≤ 0.2
8,PHRY,≤ 0.2
9,TIRC,≤ 0.2
10,GSEV,≤ 0.2
11,DSKT,≤ 0.2
12,IERG,≤ 0.2
13,DHPE,≤ 0.2
14,TPRT,≤ 0.2
15,IEPP,≤ 0.2
16,EYKR,≤ 0.2
17,VQKC,≤ 0.2
18,DKDC,≤ 0.2
